# Measured values from the supplement of paper PMC3334620.
# Over roughly 33,000 sequences, “E-score (-0.5 to 0.5)” has its median near -0.013; the highest 2% begin near 0.3. Some of the results follow.
# Target: T1, Msn1 (UniProt P22148)
# T1 sequence: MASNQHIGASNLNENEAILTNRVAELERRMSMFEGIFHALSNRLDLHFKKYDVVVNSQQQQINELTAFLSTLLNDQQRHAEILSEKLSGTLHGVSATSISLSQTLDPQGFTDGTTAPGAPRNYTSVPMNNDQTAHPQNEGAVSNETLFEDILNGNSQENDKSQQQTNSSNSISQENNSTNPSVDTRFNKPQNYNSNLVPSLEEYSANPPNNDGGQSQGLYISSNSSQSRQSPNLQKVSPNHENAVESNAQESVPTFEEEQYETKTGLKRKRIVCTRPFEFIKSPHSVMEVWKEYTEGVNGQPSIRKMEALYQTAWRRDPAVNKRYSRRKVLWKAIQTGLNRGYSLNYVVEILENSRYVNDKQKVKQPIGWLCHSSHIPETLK
# Assay: PBM E-score (8-mer binding enrichment) (E-score (-0.5 to 0.5)); higher = stronger / more preferred TF binding; most listed sequences are background and not binding sites
# Details: protein concentration: 200 nM; construct: GST-full length
# In short: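 For each ungapped eight-base word taken together with its reverse complement, the Universal PBM Analysis Suite assigned an E-score. Binding data came from GST-tagged yeast transcription factors, applied at about 100-200 nM, on universal all-10-mer Agilent arrays made double-stranded by primer extension. Fluorescent anti-GST marked bound protein, and scans were normalised with masliner.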
row,Sequence,PBM E-score
1,CGTCACTC,-0.188
2,TCACGCAA,0.18
3,CGTGCCAA,-0.2
4,AGGGCTTA,-0.181
5,ACCTTCCA,-0.119
6,ACGACCTA,-0.0056
7,ATGCAGTG,0.0222
8,AATTCGCT,0.236
9,AGCGTGAG,-0.246
10,AATGTGGT,0.00774
11,TAACAAGA,-0.0257
12,AATAACCC,0.109
13,CGGACTCA,0.178
14,GATATGAC,0.0383
15,GGACTCCC,-0.181
16,AAATACAG,-0.0238
17,TCTAGAAA,0.0682
18,TAATACGA,0.0364
19,CAATCCCC,-0.123
20,AGACCTAA,-0.0999
21,CTCTATAC,-0.124
22,AGCGCTAA,-0.0425
23,ACCGTTTA,-0.0287
24,AAGTTAAG,-0.202
25,ATTAGTGG,0.0971

row,Sequence,PBM E-score
1,AGTTCAAC,0.0955
2,CTCCAACA,-0.112
3,CATACGAC,0.08
4,ATACTCAA,0.0614
5,CATTAGGC,-0.0348
6,CATGCCGA,0.147
7,AGTCTACA,-0.165
8,CAACTGTG,0.172
9,AGGGGGCG,-0.416
10,CAACGCAC,-0.121
11,ATAATAGC,0.0442
12,CTAGTCTC,0.00797
13,TACACGTA,0.104
14,CCCTACAC,-0.00857
15,CGTCATCA,0.0413
16,AATGAGGT,-0.0411
17,CTGTGAGC,-0.129
18,ATCTCGAA,0.137
19,ATTTCTGG,0.193
20,GGAGGATA,-0.142
21,AATAGTCA,0.0144
22,AGCAGGCC,-0.0677
23,CTACGCTA,-0.138
24,AACGTCTC,0.0533
25,TGAGGGAA,-0.237

row,Sequence,PBM E-score
1,ATTTAAGG,0.0511
2,AATCATGG,0.0997
3,ATCCTATG,-0.0491
4,AACGAGCA,0.00686
5,ATCTCCGG,0.199
6,ATTAATAA,0.238
7,GCTCCAAA,-0.0447
8,ATTGTGGC,0.104
9,AAACGACC,0.081
10,AAACCTCA,0.0769
11,ACACAGGA,0.187
12,GCATGAGC,-0.104
13,CGTCCAGC,-0.0215
14,CCGTAGTC,-0.159
15,GAGGACGC,-0.00551
16,GAATGAGC,-0.02
17,GAGCTGGC,-0.148
18,TGTCGCAA,0.324
19,AACCCTAG,-0.11
20,CACGGACC,0.0127
21,GTCCGATA,0.162
22,AAAACAGC,0.0586
23,AGTATCCG,0.104
24,ATATCCGA,0.202
25,ACGGAGTC,-0.124

row,Sequence,PBM E-score
1,CCCCGGTA,-0.208
2,CACCCCCC,-0.402
3,AGGTACTA,0.0722
4,CAAACTTC,0.159
5,CCCTGGGC,-0.306
6,TCGAGACA,0.273
7,CCGGGGCC,-0.338
8,CCCCCCCC,-0.346
9,CTGCTACA,-0.054
10,CGCGGAGA,0.109
11,AAATGACA,0.278
12,ATTCCTGA,-0.00903
13,TCGACTAA,0.159
14,CCGTGTCA,0.121
15,CAAGGAGC,-0.292
16,CCCACAAG,0.00789
17,AAGGATCG,0.0188
18,ACCTATCC,0.134
19,CATGACTA,-0.16
20,AATTAATG,0.189
21,AAATTTTC,0.0153
22,CCTGTTCA,-0.145
23,CACTTAGC,-0.141
24,ACTTGTGG,-0.0361
25,AATCAATC,0.13

row,Sequence,PBM E-score
1,CTCCGTTA,-0.156
2,GATGTTAA,0.0332
3,ACAGATAA,0.0286
4,AGCGTACC,-0.278
5,CCCGAATC,-0.0424
6,GTATGCGA,0.00171
7,TCGCCTCA,0.0235
8,CCTTACTA,0.0743
9,ACACTGTA,-0.105
10,TCCCAGAA,-0.0771
11,TCTCTCCA,-0.196
12,ATTATTTA,0.243
13,ATATTCGA,0.0229
14,ACGTGTAA,-0.0563
15,AAGCGCAG,0.0113
16,ATCCTCCC,-0.283
17,CATTACCA,0.00384
18,AGGCGGGG,-0.156
19,CAAGGACC,0.0568
20,CCGTGCAC,-9e-05
21,AAATGCCA,0.0293
22,GGCGCGAC,0.175
23,AGAAAGTA,0.161
24,GTGCTCAA,-0.054
25,CATCGAGG,-0.0959

row,Sequence,PBM E-score
1,AGTGCCCC,-0.293
2,CCTCCCCC,-0.404
3,TAGGGTAA,0.155
4,CGCCATTC,0.0731
5,ATCATGAT,0.179
6,ACGTGAAA,0.119
7,ACCCACTA,0.00464
8,ACGTCAAG,-0.117
9,AAGGCACA,-0.0168
10,GGTCATAA,0.0762
11,CATGGTAC,0.0378
12,GGATGGGA,-0.136
13,AGGTCCTA,-0.016
14,GCTTGGTA,0.129
15,CTGATCAC,-0.188
16,AAGAACGA,0.165
17,CACTTCTA,-0.0825
18,TCGGTACA,0.281
19,CGCACTTA,-0.0705
20,ACGTCAGG,-0.149
21,CATCGGGG,-0.091
22,AAAGGCTG,-0.149
23,AAAAGCCA,0.039
24,CCCGTGAG,-0.0409
25,CCCGCAGG,-0.165

row,Sequence,PBM E-score
1,TAGTACAA,0.321
2,GCTTTGAA,-0.0376
3,TGATCCCA,-0.0531
4,ATGTAGTC,0.0193
5,CACTACAG,-0.0138
6,GGTAACCA,-0.152
7,CGGAGTAC,-0.0117
8,CCATTCAG,0.00142
9,CAGATGCC,-0.152
10,GACGGGGA,-0.195
11,CGCGGGCC,-0.105
12,ACGTGAAC,-0.0481
13,ATTGTGGA,0.098
14,CGTGGAAC,-0.0518
15,ACTTGCAT,-0.0264
16,GCTACGTA,-0.0664
17,ATTGCAGC,-0.0794
18,ACAGCGGG,-0.115
19,ACCTAAAC,-0.0436
20,CCCATACA,-0.0596
21,ATGCCTGG,-0.0522
22,AGAAACCA,0.0249
